# Experimental data from PMC12136788.
# This is one part of the list.
# B1: chr19:35513049:35513475:-|CDS|ENSG00000161249|control|control|control (ssRNA)
# RNA: GGGAGUUCUACAGUCCGACGAUCUGGCCAAGGGACCAGAGAAGCAGUUGGCACUGGAGUCAGGCAGGUUCCAGGCUUUGGCGUAGCAGAUGCUUUGGGCAACAGGGUCGGGGAAGCAGCCCAUGCUCUGGGAAACACUGGGCACAACAGAGGAUUGAGCAUCA
# B2: chr3:120327094:120327202:-|3pUTR|ENSG00000163428|unk|FALSE|unique (ssRNA)
# RNA: GGGAGUUCUACAGUCCGACGAUCGAAGAGAAGUCACCAAACACCUAGGGACAGUCCUAGGCCUAGAAAGCCCUUUAAAGUAAUAGUGAAUUGUUUUAAAAUUAAGUUAUUGAGUGGCCUACUGACUACCAUCCAAAAACCUUUCAACAGAGGAUUGAGCAUCA
# B3: chr1:229632307:229632408:+|CDS|ENSG00000135763|unk|FALSE|bound_elsewhere (ssRNA)
# RNA: GGGAGUUCUACAGUCCGACGAUCAUUUUAUAAGAAAAAGCUUGAACUGAAGGAAGAUAUUGUUGAAAGGCUUUGGAUCUAUAUAGAUAACAUUUUACAUAGCAGAAAAUUGCAGAAUCUCCUCAAGAAUGGAAAGACCAUUAACAACAGAGGAUUGAGCAUCA
# B4: chr6:30110447:30110678:-|CDS|ENSG00000204616|control|control|control (ssRNA)
# RNA: GGGAGUUCUACAGUCCGACGAUCCCAGGUAGAACAUGAGAAGCAAAGGAUCCUCACAGAAUUUGAACUCCUGCAUCAAGUCCUAGAGGAGGAGAAGAAUUUCCUGCUAUCACGGAUUUACUGGCUGGGUCAUGAGGGAACGGACAACAGAGGAUUGAGCAUCA
# B5: chr4:4235611:4235720:-|3pUTR|ENSG00000132406|unk|FALSE|unique (ssRNA)
# RNA: GGGAGUUCUACAGUCCGACGAUCAUGAUAGUUUUGUUAGGUGACAGGACCAAAUGAAAAUAUUUUAUGUUUUCUCAUCACUUUAGAUUUUAUCAUUAUGUACAUUACUGGGUUUUUAGCAUUUCCUAAUGUGAAGUUUUAAUCCAACAGAGGAUUGAGCAUCA
# B6: ENSG00000198589:be:win_7001|CDS|ENSG00000198589|bound_else_gene|NA|bound_elsewhere_windowed (ssRNA)
# RNA: GGGAGUUCUACAGUCCGACGAUCGAGCUUGGCGAAACAGUCAGCGUGAUACCUCUGAUAUUAAGGAGUUGAUCCCUGAAUUUUAUUAUCUCCCUGAGAUGUUUGUCAACUUCAAUAAUUAUAAUCUUGGAGUGAUGGAUGAUGCAACAGAGGAUUGAGCAUCA
# B7: chr6:17764380:17764481:-|CDS|ENSG00000137177|msi1|total|mutant (ssRNA)
# RNA: GGGAGUUCUACAGUCCGACGAUCCCAGAGCAUCCCUGAGAAAAACUCCAAAUCACUGUGCAGGACUGGCUCAUGUUCAGAACCCGAUGCCUGCCCCAGCAAAAUCCGCCAGCCAGCCAGGGGAUUCUGCCCCAGGGAGGUGACCAACAGAGGAUUGAGCAUCA
# B8: chr8:67434037:67434240:-|three_prime_utr|ENSG00000165078|control|control|control (ssRNA)
# RNA: GGGAGUUCUACAGUCCGACGAUCCCCUUGUGAUGACACAUACUGUGGCCCUUUUCCAGAAUCUGAGCCGGAAGUGAAGGCUGUAGCUAACUUCCUUCGAAAACACAGAAAGCACAUUAGGGCUUAUCUCUCCUUUCAUGCAUACAACAGAGGAUUGAGCAUCA
# B9: chr11:214995:215097:+|3pUTR|ENSG00000177963|unk|FALSE|unique (ssRNA)
# RNA: GGGAGUUCUACAGUCCGACGAUCCCUCCUUCCUACUGGUUUAGACUACACUUACAACAAGGAAAAUGCCCCUCGUGUGACCAUAGAUUGAGAUUUAUACCACAUACCACACAUAGCCACAGAAACAUCAUCUUGAAAUAAAGACAACAGAGGAUUGAGCAUCA
# B10: chr19:12317476:12318593:-|three_prime_utr|ENSG00000188868|control|control|control (ssRNA)
# RNA: GGGAGUUCUACAGUCCGACGAUCCACCAUUGUCAACAUAAAACAACUCACAGAGCAGAAAAACUCUGUGAGUGUAAAAUAUGUAGGGAAGCCUUCAGUCAUUUUGGUAACUUAAAAGUACAUGAGGCUGGGCACAGUGGCUCACAACAGAGGAUUGAGCAUCA
# B11: chr20:3933335:3933436:-|3pUTR|ENSG00000101236|msi1|total|mutant (ssRNA)
# RNA: GGGAGUUCUACAGUCCGACGAUCUUACAACACCUGCUAUCAAAUCAUCUAAGCUGAAAACAUGAGAUGCGCUUGGAAAGGCCCCGUCAGAAGCCAUUUCCUCUUAUCAUUUCCCUCUCCUAUGCACCAGUAAGGCCCGUCCAGCAACAGAGGAUUGAGCAUCA
# B12: chr7:30013596:30013706:-|3pUTR|ENSG00000106080|msi1|total|mutant (ssRNA)
# RNA: GGGAGUUCUACAGUCCGACGAUCUUAUAUUCAAUAUUUACUUCUUAAGGCCCGCGGAAUAUCCUUCCUGGUUCUUUAAUGGGCCGUCUACCGUAUAUUAUACUACAAUAACAUUGUAUCAUAAGAUAAAGCCGUAAACCAGUCCAACAGAGGAUUGAGCAUCA
# B13: chr11:119314942:119315043:-|CDS|ENSG00000076706|msi1|FALSE|unique (ssRNA)
# RNA: GGGAGUUCUACAGUCCGACGAUCGGGAGACUCUGCCCCUCUUGUAGCCCAGGACCCUUCUCCUCCUCUGUGUCUCCUCCCAUUAGGUCCACAAGGAGAAGCGGACGCUCAUCUUCCGUGUGCGCCAGGGCCAGGGCCAGAGCGCAACAGAGGAUUGAGCAUCA
# B14: chr13:73693106:73693207:-|3pUTR|ENSG00000118922|msi1|FALSE|unique (ssRNA)
# RNA: GGGAGUUCUACAGUCCGACGAUCCAGAGAACACAGAGAGGGACAAACACAGCCAUGAACCCCCUGGCACUAGUACCAGCACCUAGUUGGCAAGUAGUGGGUGCAUCUCUCAAGUGAAGUGUAGAUUUGUAUUUAGUCCUGCUUCAACAGAGGAUUGAGCAUCA
# Target: MSI1 full-length (mouse, UniProt Q61474 1-362)
# Assay: nsRBNS (natural sequence RNA bind-n-seq); RBNS binding buffer (assumed for nsRBNS): 25 mM Tris pH 7.5, 150 mM KCl, 3 mM MgCl2, 0.01% Triton X-100, 500 ug/ml BSA, 20 U/ml SUPERase-In, 4 C; UNK is unkempt and MSI1 is Musashi-1; names of the RNAs are library labels; protein concentration not given here; high values mean tight binding
# Chain of UniProt Q61474 (Q61474 whole entry): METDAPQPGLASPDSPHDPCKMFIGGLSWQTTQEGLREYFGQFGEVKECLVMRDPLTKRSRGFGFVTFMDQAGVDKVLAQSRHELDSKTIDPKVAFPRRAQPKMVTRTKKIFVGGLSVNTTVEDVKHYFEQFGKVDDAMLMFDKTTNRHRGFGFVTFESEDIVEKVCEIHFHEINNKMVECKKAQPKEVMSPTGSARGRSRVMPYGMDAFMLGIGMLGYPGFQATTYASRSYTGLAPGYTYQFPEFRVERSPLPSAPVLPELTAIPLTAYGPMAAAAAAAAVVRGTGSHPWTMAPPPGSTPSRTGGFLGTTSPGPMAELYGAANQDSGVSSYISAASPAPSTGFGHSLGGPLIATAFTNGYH
row,Binder,binding signal [enrichment R]
1,B1,0.543
2,B2,10
3,B3,9.48
4,B4,0.909
5,B5,5.29
6,B6,0.315
7,B7,0.475
8,B8,0.677
9,B9,8.28
10,B10,0.393
11,B11,0.482
12,B12,2.16
13,B13,0.577
14,B14,3.71
